The list shows a part of the results.

The subject of the assay is PfSIP2 AP2 domain 1 (GST-tagged). Nature of the assay: gcPBM binding intensity (ln(normalized median fluorescence intensity)); higher = stronger DNA binding. Put shortly: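 The binding buffer was 1× PBS containing 1% milk, 0.2 mg/ml BSA, 0.5% salmon testes DNA and 0.03% Triton X-100. In it, GST-tagged P. falciparum DNA-binding domains expressed in E. coli were applied for 1 h to an Agilent 4 × 180k array of primer-extended double-stranded 36-bp intergenic genomic probes plus negative controls. Binding intensity, read with Alexa488 anti-GST antibody and a 488 nm scan, is the highest Masliner-normalised natural-log median intensity across replicate spots of either probe orientation.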
Turning to “AATTAAAAAGAAAAAAGTACATATTTTTTTAAAAAA [XGTACX_site7384]”, the “gcPBM binding intensity (ln)” value is 6.99. The result for “ATATATATATATATGTGTACTAATAAGGTTAAATAA [XGTACX_site1535]” reads 9.29. In the case of “AAATATATATTTCTTAGTACATATGTATTTTTTTTT [XGTACX_site938]”, the “gcPBM binding intensity (ln)” value worked out at 6.85. The result for “TTTGACAAATTATTGTGTACACAATATTATTATATA [XGTACX_site8320]” reads 7.14.

Take “ACAAAATGTAGATATTGTACATATTGTAGATATTGT [XGTACX_site7619]”: the “gcPBM binding intensity (ln)” value came out at 6.98. As to “ATTTACATTATATTGAATATGCCATATTATATTATT [CACACA_negctrl_site811]”, the “gcPBM binding intensity (ln)” value was 6.72.

As to “TCTAACATATTTTTAATACACACTTAAAAAAGTACT [CACACA_site1366]”, the “gcPBM binding intensity (ln)” value turned out to be 7.01. The result for “AATGCTTTTCATCAAGTGCAATATGTTAATACAAAC [GTGCAC_site9619]” reads 7.51. The value for “TATAAAAGTAGACACACACACATATAAATATAAATA [CACACA_site6567]” was 7.05; that for “TCTATATCAACCAGTTGTACTGAATTTACTATATTT [XGTACX_site4205]” was 6.84.

“AAAAAAAAAAATGGTTGTACTTTTTTTATTTGGTGC [XGTACX_site4498]”: the “gcPBM binding intensity (ln)” value was found to be 7.37. The result for “GTAGACTGAAACCACACACACATATATAAATATATT [CACACA_site6433]” reads 7.13; that for “ATAGACTTTTGTTTTGTTTTATTTTATTGTATTGTA [CACACA_negctrl_site618]”, 6.75. The result for “ATATTATATTGGATGTTGCACTTAACAAAAGGATAT [GTGCAC_site9478]” reads 8.76; that for TGTATGTATAATTGAGTGCACAGAAAAAAAAAAGAA, 10.5; that for “AGAAAAAAAAAAAAAAAACACACGGTACATTCAAAG [CACACA_site2]”, 6.79. The value for “TAATTTTCATATTTCTGTACATATATTATAAATATA [XGTACX_site3480]” was 6.93.

Turning to “TAATATATATATATTACACACACGTATTATTAAATA [CACACA_site432]”, the “gcPBM binding intensity (ln)” value stood at 7.16. The value for “TTTTTTTTTTGATGAGCACACATGTTTTTTCTTAGA [CACACA_site3171]” was 6.87; that for “AAAAAATATTTATGTTCACACATTTTATATATGATA [CACACA_site4821]” was 7.02; that for “AAATATTTTTAAAGAAGTACTTTTTAAAAATAATCT [XGTACX_site4897]” was 6.9.

For “GCGTATACTTGTAACGGTACACAGGAAATTATAGAA [XGTACX_site507]”, the “gcPBM binding intensity (ln)” value was determined as 7.06. As to “TCTTTGTTTTTTTTTTTTAAACAAAATCATCAAAGG [XGTACX_negctrl_site192]”, the “gcPBM binding intensity (ln)” value was determined as 6.9. The result for “AAGATACACCTTTTTAGTACTTACATTTTTTTTATT [XGTACX_site1373]” reads 6.99.

“AATAAATATATATACACACCCATATATATATATATA [CACACA_site2595]”: the “gcPBM binding intensity (ln)” value is 9.64.

(Values after the supplement of paper PMC11417369.)
